From the supplement of paper PMC12067230
The data scatter; read single values as rough.

Test: amyloid nucleation score relative to library mode (yeast Sup35 reporter selection) (log enrichment difference); higher = more amyloid nucleation; sequences are the first 22 residues of the Bri2 peptide extended by up to 12 random residues
Conditions: random library (experiment): 1;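 active = nucleation score significantly above 0 at FDR 0.05; inactive = not significantly above 0 or absent from output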
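Further: [psi-pin-] Saccharomyces cerevisiae expressing SupN fusions, induced by 100 µM Cu2SO4, selected 7 d at 30 °C without adenine and uracil, scored by deep sequencing of output versus input.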

Sequence | amyloid nucleation score
EASNCFAIRHFENKFAVETLICFYTYGQLIKHMA | inactive
EASNCFAIRHFENKFAVETLICTAGWMC | 4.27
EASNCFAIRHFENKFAVETLICRSDFCAGVQCCG | inactive
EASNCFAIRHFENKFAVETLICMEEVWEPKAWAA | inactive
EASNCFAIRHFENKFAVETLICCWMRDGSGSACG | 6.45
EASNCFAIRHFENKFAVETLICRSCCHGLRNKE | 1.53
EASNCFAIRHFENKFAVETLICCLLCPYR | 7.95
EASNCFAIRHFENKFAVETLICGRVRTYWSGSFA | 4.17
EASNCFAIRHFENKFAVETLICWMELLGCKCCRR | inactive
EASNCFAIRHFENKFAVETLICFKPGSLRLVGGD | inactive
EASNCFAIRHFENKFAVETLICMNVGAGRVTGRK | inactive
EASNCFAIRHFENKFAVETLICADVW | inactive
EASNCFAIRHFENKFAVETLICPIAFTFHSCCAG | 7.12
EASNCFAIRHFENKFAVETLICRGVCGWNTDGLR | 3.47
EASNCFAIRHFENKFAVETLICRIGIF | inactive
EASNCFAIRHFENKFAVETLICGSRDK | inactive
EASNCFAIRHFENKFAVETLICPTEIYLAFVPGA | 5.67
EASNCFAIRHFENKFAVETLICGDTVRRATRCCI | 0.645

Sequence | amyloid nucleation score
EASNCFAIRHFENKFAVETLICWMVLPKVNSLWC | inactive
EASNCFAIRHFENKFAVETLICVWVKRPSGQPVV | inactive
EASNCFAIRHFENKFAVETLICECAVSECMLFVA | inactive
EASNCFAIRHFENKFAVETLICGPRHLRL | inactive
EASNCFAIRHFENKFAVETLICFEFVANVHLQVS | 7
EASNCFAIRHFENKFAVETLICYFHMDACSYFLD | inactive
EASNCFAIRHFENKFAVETLICREFTALVEMKPN | 0.879
EASNCFAIRHFENKFAVETLICWSILP | 7.3
EASNCFAIRHFENKFAVETLICISIGQIGNIGSG | 7.8
EASNCFAIRHFENKFAVETLICVYSRRAWSERPR | inactive
EASNCFAIRHFENKFAVETLICRVPRRFQNSEPV | inactive
EASNCFAIRHFENKFAVETLICAVVAWVMEWKAG | -0.444
EASNCFAIRHFENKFAVETLICWM | 6.19
EASNCFAIRHFENKFAVETLICILEPWIRPKKIS | inactive
EASNCFAIRHFENKFAVETLICGAQRCLISIGLE | inactive
EASNCFAIRHFENKFAVETLICMEWRGVVFRMHP | inactive
EASNCFAIRHFENKFAVETLICVRSMR | 1.89
EASNCFAIRHFENKFAVETLICYMGHEGGQVAVG | inactive

Same assay, conditions: random library (experiment): 2

Sequence | amyloid nucleation score
EASNCFAIRHFENKFAVETLICMKMKSILTSADH | inactive
EASNCFAIRHFENKFAVETLICYILMDKSRKVSR | 5.96
EASNCFAIRHFENKFAVETLICKTPNGFADRRLL | inactive
EASNCFAIRHFENKFAVETLICDNGGIGSSALHV | inactive
EASNCFAIRHFENKFAVETLICRSKPSMPIRGGR | inactive
EASNCFAIRHFENKFAVETLICTTFCYPCYVGGL | 5.78
EASNCFAIRHFENKFAVETLICIKVWFLRIGLGS | inactive
EASNCFAIRHFENKFAVETLICWTGIPKSCSSFV | inactive
EASNCFAIRHFENKFAVETLICRDNLYVASSYHR | 3.05
EASNCFAIRHFENKFAVETLICVRVQSLSDNQAW | inactive
EASNCFAIRHFENKFAVETLICVYNVYTNLYRIK | 1.82
EASNCFAIRHFENKFAVETLICGLHWTLLDVWLR | inactive
EASNCFAIRHFENKFAVETLICDNDKYVGIIRVI | 1.29
EASNCFAIRHFENKFAVETLICFHFFYNPSLCNA | 0.625
EASNCFAIRHFENKFAVETLICNSCLAMLFISND | 4.55
EASNCFAIRHFENKFAVETLICCMR | 7.01
EASNCFAIRHFENKFAVETLICEKLNLLKGDRCW | 1.08
EASNCFAIRHFENKFAVETLICFNCA | 7.86
EASNCFAIRHFENKFAVETLICICIIFTFWCE | inactive
EASNCFAIRHFENKFAVETLICCIENRHTESEVC | inactive
EASNCFAIRHFENKFAVETLICGFLFGSLREQ | 3.22
EASNCFAIRHFENKFAVETLICCCHHWDYKVIYF | inactive
EASNCFAIRHFENKFAVETLICIEQIHEPCYVRV | inactive
EASNCFAIRHFENKFAVETLICLIGPANSICGST | 5.05

Same assay, conditions: random library (experiment): 3

Sequence | amyloid nucleation score
EASNCFAIRHFENKFAVETLICCFPFGFWYGILV | 0.721
EASNCFAIRHFENKFAVETLICLGDLEWAVRVRA | 3.58
EASNCFAIRHFENKFAVETLICDRLRRCSLHLWL | inactive
EASNCFAIRHFENKFAVETLICNSSGSSTNRYWS | inactive
EASNCFAIRHFENKFAVETLICWWTPRCSPVCIM | inactive
EASNCFAIRHFENKFAVETLICNCPLDWGSRELT | 6.65
EASNCFAIRHFENKFAVETLICFLVAGWSVFDRW | inactive
EASNCFAIRHFENKFAVETLICRKVVMPDYGRLR | inactive
EASNCFAIRHFENKFAVETLICTSMRKLWWHTGA | inactive
EASNCFAIRHFENKFAVETLICHVAERHREWSVL | inactive
EASNCFAIRHFENKFAVETLICCCEKNRHKCLQK | 8.28
EASNCFAIRHFENKFAVETLICRNARRSTCRYLG | inactive
EASNCFAIRHFENKFAVETLICRFPVLIEVLGIS | inactive
EASNCFAIRHFENKFAVETLICADGLRSRGRSCR | inactive
EASNCFAIRHFENKFAVETLICYVSCSYLAYSKT | inactive
EASNCFAIRHFENKFAVETLICTPSVVMDTGGQW | inactive
EASNCFAIRHFENKFAVETLICEEGRYPSQVRSY | inactive
EASNCFAIRHFENKFAVETLICAFLVIMPVYKVK | inactive
EASNCFAIRHFENKFAVETLICGVARMPGMCEVE | inactive
EASNCFAIRHFENKFAVETLICVGKNRLSVCTLI | inactive
EASNCFAIRHFENKFAVETLICYSFPHIMYNLV | 2.26
EASNCFAIRHFENKFAVETLICRFGTRLEGGFGG | 1.65
EASNCFAIRHFENKFAVETLICVSYQCRHHGALC | 4.08
EASNCFAIRHFENKFAVETLICLQYSNRLMSMVW | inactive
EASNCFAIRHFENKFAVETLICFTVRRVCFRTYL | inactive
